PubChem BioAssay (NCI)
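How tested: cells in 96-well plates exposed to compound for 48 hours at five concentrations. Abbreviation: GI50, concentration required for 50% inhibition of growth. TGI marks complete inhibition of growth.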

tested on: NCI-H322M lung; assay: DTP human tumour cell line panel, 48 h

Row | Compound | TGI [µM] | GI50 [µM]
1 | Cn1c(=O)cc(NCCc2ccccc2)[nH]c1=O | > 100 | –
2 | CCCN1C(=O)CSC1=Nc1ccc2cc3ccc(N=C4SCC(=O)N4CCC)cc3nc2c1 | > 100 | 54.5
3 | O=S(=O)(O)c1cc(N=Nc2cc(S(=O)(=O)O)c3cccnc3c2O)ccc1/C=C/c1ccc(N=Nc2cc(S(=O)(=O)O)c3cccnc3c2O)cc1S(=O)(=O)O | > 100 | –
4 | CC(O)(CNS(=O)(=O)c1ccccc1)c1ccccc1 (configuration not stated) | > 100 | –
5 | O=C1CC(c2ccc(Cl)cc2)C2(C(=O)NC(=O)NC2=O)C(c2ccc(Cl)cc2)C1 (configuration not stated) | 60.2 | –
6 | Nc1cc(N2CCOCC2)nc(=O)n1-c1ccc(Cl)cc1 | > 100 | –
7 | CSc1nc2c(c(O)c(C)c(=O)n2C2OCC(OC(C)=O)C(OC(C)=O)C2OC(C)=O)c(=O)n1C (configuration not stated) | > 100 | –
8 | COC(=O)C1(C2CC/C(C)=C/CC/C(C)=C/CC[C@@]3(C)O[C@@H]3C2)CC1 (some centres not stated) | > 100 | > 100
9 | O=[N+]([O-])c1ccc(/C=C(/c2ccc([N+](=O)[O-])o2)S(=O)(=O)c2ccccc2)o1 | 52.4 | –
10 | CC(O)C(O)C(O)C(/C=N\Nc1ccccc1)=N/Nc1ccccc1 (configuration not stated) | 27.6 | –
11 | Cc1cnoc1NS(=O)(=O)c1ccc(Nc2nnc(/C=C/c3c(O)ccc4ccccc34)c(=O)n2N)cc1 | > 100 | –
12 | COc1cc2c(cc1OCCCCCCCCN1C(=O)c3cccc4cccc(c34)C1=O)N=C[C@@H]1CCCN1C2=O | 69.5 | –
13 | C1=C(c2ccccc2)C(c2ccc(OCCN3CCCCC3)cc2)Oc2ccccc21 (configuration not stated) | 3.61 | 1.65
14 | CCCCN(CCCC)C(=O)C(=O)C(C)C(=O)CC (configuration not stated) | > 100 | –
15 | CCCC(=O)OCC1OC(n2cc(F)c(=O)[nH]c2=O)C(F)C1OC(=O)CCC (configuration not stated) | > 100 | –
16 | C[C@]12C3CC[C@@]4(CO)C[C@]3(CCC1[C@](C)(C(=O)O)CC[C@@H]2O)CC4=O (some centres not stated) | > 100 | > 100
17 | COC(=O)OCc1ccc2c(c1)C(=O)c1c-2n(CCCBr)c(=O)c2cc([N+](=O)[O-])ccc12 | > 100 | > 100
18 | Cc1cc(=O)[nH]c(/N=C(\N)Nc2ccc(Cl)cc2)n1 | > 100 | –
19 | COc1ccc(CCNC(=O)CCc2ccccc2CO)cc1OC | > 100 | –
20 | CC(C)(C)[Si](C)(C)OCC1OC(n2cnc3c(N)ncnc32)CC1OS(C)(=O)=O (configuration not stated) | > 100 | –
21 | C=C1CC2(CCCC3(CC(=C)C(=O)O3)C2(C)C)OC1=O (configuration not stated) | 27.4 | –
22 | Cc1cc(=O)oc2c3c(ccc12)OC(c1ccc(Br)cc1)CC3=O (configuration not stated) | 35.3 | –
23 | O=C1c2ccccc2C(C2c3ccccc3C(=O)c3cc(Br)ccc32)c2ccc(Br)cc21 (configuration not stated) | > 100 | –

Row | Compound | TGI [µM] | GI50 [µM]
24 | O=S(=O)(O)c1cc(N=[N+]([O-])c2cc(S(=O)(=O)O)c3ccccc3c2)cc2ccccc12 | > 100 | –
25 | COc1ccc(C(=O)N(C(=O)N2CCN(c3ccccc3)CC2)S(=O)(=O)c2ccccc2)cc1 | > 100 | –
26 | COc1ccc(N=Nc2ccc3oc(=O)c(C(=O)Nc4ccc(Cl)cc4)cc3c2)cc1 | > 10 | –
27 | c1cc[c]([Sn]([S]c2cccc3cccnc23)([S]c2cccc3cccnc23)[c]2ccccc2)cc1 | 1.21 | 0.303
28 | Clc1ccc(C=NC23CC4CC(CC(C4)C2)C3)cc1Cl | > 10 | –
29 | CCOc1ccc2ccc3cccnc3c2n1 | > 100 | –
30 | O=c1c2ccccc2nc(-c2ccccc2)n1O | > 100 | –
31 | CC1(C)CCC[C@]2(C)[C@@H]1CC[C@@]13O[C@@H]1C1=C(CO)C(=O)OC1=C[C@@H]23 | 43.8 | –
32 | CN1CCN(c2ccc(NC3=C(Cl)C(=O)c4ncccc4C3=O)cc2C#N)CC1 | 26.7 | 13.8
33 | CCOC(=O)/C(C[C@H]1OC(C)(C)O[C@@H]1[C@H]1COC(C)(C)O1)=N/O | > 100 | –
34 | CC(=O)c1cc2c(c3ccsc13)-c1ccccc1CC2 | 88.1 | 24.7
35 | Cc1cc(=O)oc2c(C)c3oc(CBr)c(Br)c3cc12 | > 100 | –
36 | COc1cc(C2=NN(c3ccc(S(N)(=O)=O)cc3)C(c3ccc(Cl)cc3)C2)cc(OC)c1OC (configuration not stated) | > 100 | 6.06
37 | O=C(Nc1ccc(Cl)cc1)c1cc(S(=O)(=O)Nc2nnc(-c3ccccc3)c(-c3ccccc3)n2)c(SCc2ccccc2)cc1Cl | 53.6 | 20.7
38 | CC(=O)[C-](C(C)=O)c1ccccc1.CC(=O)[C-](C(C)=O)c1ccccc1.CC[O-].CC[O-].[Ti+4] | > 100 | > 100
39 | CCOP(=O)(OCC)[C@]12C[C@@H](C)C=C[C@H]1COC2=O | > 100 | –
40 | CN(C)CCc1ccnc2nc(-c3ccc4ccccc4c3)cn12 | > 100 | –
41 | C#Cc1cccc(Oc2ccc(NC(=O)CCl)cc2)c1 | > 82.5 | > 82.5
42 | CC(C)(Oc1ccc2c(=O)cc(-c3ccccc3)oc2c1)C(=O)Nc1c(Cl)cccc1Cl | > 100 | –
43 | COC(CN(C=O)[C@@H](c1ccc(Cl)cc1)c1cc2ccccc2o1)OC | 30.9 | –
44 | CCOC(=O)c1[nH]c(CN(C)Cc2[nH]c(C(=O)OCC)c(C)c2C(=O)OCc2ccccc2)c(C(=O)OCc2ccccc2)c1C | > 100 | –
45 | Cc1ccc(CC(Cc2ccc(C)cc2C(=O)O)C(=O)O)cc1 (configuration not stated) | > 100 | –
46 | Cc1ccc(NC(=O)c2[nH]c(SCCN(C)C)nc2-c2ccc(F)cc2)cc1C#Cc1cnc2cccnn12 | 4.21 | 2.07

Row | Compound | TGI [µM] | GI50 [µM]
47 | BrC1=CC=C2NCCCCCCN=C3C=CC(Br)=CC=C3NCCCCCCN=C2C=C1 | > 25.5 | –
48 | C/C1=C/C(=O)O[C@@H]2C[C@@H](CC[C@H](C)/C=C\C=C\CC1)O[C@@](OCCc1ccccc1)([C@@H]1CSC(=O)N1)C2 | > 17.5 | 1.39
49 | CC(C(=O)c1ccc(Cl)cc1)C1OC(=O)C(Cl)=C1Cl (configuration not stated) | > 100 | –
50 | C=CCC(N[C@H](CO)c1ccccc1)c1cn(S(=O)(=O)c2ccc(C)cc2)c2ccccc12 (some centres not stated) | 44.8 | 11.1
51 | C/C(=N\Nc1nc2ccccc2o1)c1cc(C)ncn1 | > 84.2 | –
52 | CN(NC(=O)/C(=C\c1ccco1)NC(=O)c1ccccc1)c1cn[nH]c(=O)c1Cl | > 100 | –
53 | O=C1c2ccn(CCCCN3CCCCC3)c2C(=O)c2c1c(O)c1ccccc1c2O | 23.3 | 9.32
54 | O=C(O)/C(=C\c1ccccc1Cl)S(=O)(=O)c1ccccc1 | > 100 | –
55 | CCCCCCC#CC#Cc1cccc(=O)o1 | 30.8 | 15.3
56 | CCOC(=O)C(=O)NCCCN1CCOCC1 | > 100 | –
57 | O=C(O)C1(Cc2ccc3c(c2)CCC3)Cc2ccccc2C1=O (configuration not stated) | > 100 | –
58 | COc1cc([C@@H]2c3cc4c(cc3[C@@H](c3c(O)cc(O)c5c3O[C@H](c3ccc(O)c(O)c3)[C@H](OC(=O)c3cc(O)c(O)c(O)c3)C5)[C@H]3COC(=O)[C@H]23)OCO4)cc(OC)c1OC | > 100 | –
59 | COc1cc2c(cc1C)NC(=O)/C2=C/c1c(Cl)n(-c2ccccc2)c2ccccc12 | > 100 | –
60 | O=C(O)Cn1c(=O)[nH]c(=O)c2[nH]cnc21 | > 100 | –
61 | O=c1[nH]c(Nc2ccc(Cl)cc2)nc2nc[nH]c12 | > 100 | –
62 | CCN(CC)CCOc1ccc2c(c1)C(=O)c1cc(OCCN(CC)CC)ccc1-2 | 67.9 | 12.5
63 | Cc1cccc(C)c1NC(=O)CCC(=O)NC(N)=S | > 100 | –
64 | CCCC(=O)Oc1ccc2c(C)cc(=O)oc2c1OC(=O)CCC | > 100 | –
65 | CCCCNC(=O)CCN(C(=O)O)S(=O)(=O)c1ccc(NC(=O)c2ccccc2)cc1 | > 100 | –
66 | O=[N+]([O-])[O-].O=[N+]([O-])[O-].[Au].[Au].c1ccc([P-]c2ccccc2)cc1.c1ccc([P-]c2ccccc2)cc1 | > 100 | > 100
67 | O=C(O)c1cc(Cc2ccc(O)c(C(=O)O)c2)ccc1O (tested in a mixture with another compound) | 23.6 | 11.4
